The densities may have been worked out from excess volumes.
Assay: xn = mol fraction of the nth substance listed
Conditions: 100 kPa

CCCC[n+]1ccn(CC)c1.[Br-] + CO
mass density [kg/m3]
Conditions | 293.15 K | 298.15 K | 303.15 K | 308.15 K | 313.15 K
x1 = 0.0251 | 846.2 | – | 837.6 | 833.1 | –
x1 = 0.0498 | 891.1 | 886.7 | 882.4 | 878 | 874
x1 = 0.0749 | 929.9 | – | 921.5 | 917.2 | –
x1 = 0.1043 | 968.4 | 964.3 | 960.2 | – | 952.4
x1 = 0.1485 | – | 1010.8 | – | 1003 | 999.4
x1 = 0.199 | 1057.1 | 1053 | 1049.2 | – | –
x1 = 0.243 | 1086.3 | 1082.7 | 1079.3 | – | –
x1 = 0.302 | 1117.7 | 1114.3 | 1110.8 | 1107 | –
x1 = 0.3975 | 1156.5 | 1152.7 | – | – | –
x1 = 0.4887 | 1183.8 | – | 1176.6 | 1173 | 1169.8
x1 = 0.6025 | 1209.3 | 1205.5 | 1202.1 | – | 1195.7
x1 = 0.7015 | 1226.6 | 1223.2 | 1219.8 | 1216.4 | 1213.5
x1 = 0.7965 | 1240.5 | 1237 | 1233.6 | – | –
x1 = 0.888 | 1252 | 1248.2 | 1244.7 | – | 1237.8
